In assay [1] the target is T1, CD63 (tetraspanin), murine (mouse (endogenous in melan-a, 4C, 4C11- and 4C11+ cells)) (UniProt P41731).
T1 sequence: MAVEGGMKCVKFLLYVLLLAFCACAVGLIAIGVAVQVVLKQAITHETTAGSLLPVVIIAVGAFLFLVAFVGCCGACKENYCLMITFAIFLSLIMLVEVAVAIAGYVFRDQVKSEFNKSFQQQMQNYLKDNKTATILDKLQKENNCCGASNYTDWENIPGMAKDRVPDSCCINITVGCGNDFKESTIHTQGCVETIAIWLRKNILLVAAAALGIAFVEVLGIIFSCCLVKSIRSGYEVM
Description: co-IP; membrane-enriched extracts of murine non-tumorigenic melan-a melanocytes; immunoprecipitated with anti-CD63 on protein G-agarose, 4°C; Western blot with anti-β1-integrin.

Protein sequences, listed by entry. Tags and fused reporters are not part of them. Lines headed by an entry give the natural chain unless they say otherwise; changes in a name come on top. Residues count along the entry.
UniProt P01033, residues 24-207: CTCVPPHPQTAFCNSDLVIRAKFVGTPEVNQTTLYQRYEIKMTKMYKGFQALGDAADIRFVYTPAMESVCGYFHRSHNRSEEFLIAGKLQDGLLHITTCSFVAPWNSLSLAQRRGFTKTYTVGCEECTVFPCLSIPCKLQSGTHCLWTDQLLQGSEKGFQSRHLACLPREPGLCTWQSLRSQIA
UniProt P09055, residues 21-798: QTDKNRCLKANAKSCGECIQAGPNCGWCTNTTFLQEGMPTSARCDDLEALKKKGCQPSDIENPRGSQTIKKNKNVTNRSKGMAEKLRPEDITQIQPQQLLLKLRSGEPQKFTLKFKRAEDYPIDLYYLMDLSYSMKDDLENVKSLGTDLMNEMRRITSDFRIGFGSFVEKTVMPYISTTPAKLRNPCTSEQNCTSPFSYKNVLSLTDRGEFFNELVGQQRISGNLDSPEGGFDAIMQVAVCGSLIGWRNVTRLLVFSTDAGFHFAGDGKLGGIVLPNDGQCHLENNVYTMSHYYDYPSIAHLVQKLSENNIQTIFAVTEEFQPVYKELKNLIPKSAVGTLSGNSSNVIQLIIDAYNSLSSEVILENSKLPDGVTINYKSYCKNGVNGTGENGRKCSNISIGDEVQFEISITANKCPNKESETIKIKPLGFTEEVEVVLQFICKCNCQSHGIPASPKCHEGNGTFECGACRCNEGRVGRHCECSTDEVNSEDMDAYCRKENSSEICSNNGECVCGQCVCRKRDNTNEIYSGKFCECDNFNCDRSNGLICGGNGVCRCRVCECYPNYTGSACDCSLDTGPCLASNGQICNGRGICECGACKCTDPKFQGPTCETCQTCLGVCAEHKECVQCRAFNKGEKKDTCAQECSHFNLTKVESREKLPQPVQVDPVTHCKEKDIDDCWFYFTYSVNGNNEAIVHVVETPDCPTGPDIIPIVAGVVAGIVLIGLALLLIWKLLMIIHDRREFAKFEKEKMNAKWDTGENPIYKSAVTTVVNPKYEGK
UniProt P05556: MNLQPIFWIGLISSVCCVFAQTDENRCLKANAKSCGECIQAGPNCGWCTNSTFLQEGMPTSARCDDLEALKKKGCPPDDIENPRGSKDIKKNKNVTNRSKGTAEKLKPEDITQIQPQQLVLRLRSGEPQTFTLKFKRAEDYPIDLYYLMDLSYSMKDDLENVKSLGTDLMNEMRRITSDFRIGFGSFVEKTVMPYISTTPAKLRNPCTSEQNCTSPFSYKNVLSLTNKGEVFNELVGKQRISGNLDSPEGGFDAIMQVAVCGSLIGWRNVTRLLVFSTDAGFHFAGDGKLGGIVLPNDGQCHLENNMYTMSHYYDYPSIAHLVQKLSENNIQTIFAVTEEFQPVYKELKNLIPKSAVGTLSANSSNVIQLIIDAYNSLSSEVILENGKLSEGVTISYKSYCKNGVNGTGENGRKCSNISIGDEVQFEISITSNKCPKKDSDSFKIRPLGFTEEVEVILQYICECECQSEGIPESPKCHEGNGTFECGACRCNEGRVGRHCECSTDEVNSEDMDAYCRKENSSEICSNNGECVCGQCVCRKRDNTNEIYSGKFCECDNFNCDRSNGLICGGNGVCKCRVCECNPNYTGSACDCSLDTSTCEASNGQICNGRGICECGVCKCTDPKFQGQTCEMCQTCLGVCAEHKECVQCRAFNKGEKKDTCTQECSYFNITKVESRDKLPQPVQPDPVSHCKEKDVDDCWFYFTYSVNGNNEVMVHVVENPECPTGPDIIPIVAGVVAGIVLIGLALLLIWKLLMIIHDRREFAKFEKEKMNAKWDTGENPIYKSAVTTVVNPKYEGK
UniProt P12032, residues 25-205: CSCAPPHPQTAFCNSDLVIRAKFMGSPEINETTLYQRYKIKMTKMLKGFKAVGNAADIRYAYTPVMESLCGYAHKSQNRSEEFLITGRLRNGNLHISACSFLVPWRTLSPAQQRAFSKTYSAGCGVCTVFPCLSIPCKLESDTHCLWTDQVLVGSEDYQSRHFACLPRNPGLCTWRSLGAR

Assay [2] concerns the target T1, CD63 (tetraspanin), murine (mouse (endogenous in melan-a, 4C, 4C11- and 4C11+ cells)). Kind of assay: co-IP; membrane-enriched extracts of murine pre-malignant 4C melanocytes; immunoprecipitated with anti-β1-integrin or anti-CD63 on protein G-agarose, 4°C; Western blot with anti-Timp1 or anti-β1-integrin.
Assay [3] has the same target. Kind of assay: co-IP; membrane-enriched extracts of murine tumorigenic 4C11- and 4C11+ melanoma cells; immunoprecipitated with anti-β1-integrin or anti-CD63 on protein G-agarose, 4°C; Western blot with anti-Timp1 or anti-β1-integrin.
Assay [4] has as its target TIMP1, human (human (endogenous in MP#2, Mel2, Mel3 and Mel14 cells)) (UniProt P01033). Description: co-IP; membrane-enriched extracts of human metastatic melanoma cells Mel2, Mel3 and Mel14; immunoprecipitated with anti-TIMP1 on protein G-agarose, 4°C; Western blot with anti-β1-integrin.
For assay [5] the target is unchanged. Kind of assay: condition: only in extracts of primary human melanocytes MP#2; co-IP; membrane-enriched extracts of primary human melanocytes MP#2; immunoprecipitated with anti-TIMP1 on protein G-agarose, 4°C; Western blot with anti-β1-integrin. (In general: In western blotting, separated proteins are transferred to a membrane and probed.)
The target in assay [6] is β1-integrin, murine (mouse (endogenous in melan-a, 4C, 4C11- and 4C11+ cells)) (UniProt P09055). Description: co-IP; membrane-enriched extracts of murine tumorigenic 4C11- and 4C11+ melanoma cells; immunoprecipitated with anti-β1-integrin or anti-CD63 on protein G-agarose, 4°C; Western blot with anti-Timp1 or anti-β1-integrin.
Assay [7] shares this target. Description: condition: only in extracts of pre-malignant 4C melanocytes; co-IP; membrane-enriched extracts of murine pre-malignant 4C melanocytes; immunoprecipitated with anti-β1-integrin or anti-CD63 on protein G-agarose, 4°C; Western blot with anti-Timp1 or anti-β1-integrin.

These are yes or no findings as the source states them, for the method shown. Binding seen in cells or lysates may run through a third protein. Some binding calls cover weakened binding; strength is not graded here.

“β1-integrin, murine (from UniProt P09055 21-798) (receptor)”: the binding entry in assay [1] is “binds weakly”; in assay [2] it was “binds”; in assay [3] it was “binds”.

“β1-integrin, human (from UniProt P05556 21-798) (receptor)”: the binding result in assay [4] is on record as “binds”; in assay [5] it was “no binding”.

Turning to “Timp1 (tissue inhibitor of metalloproteinases 1), murine (from UniProt P12032 25-205)”, the binding entry is “binds” in assay [2], “binds” in assay [3], “binds” in assay [6] and “no binding” in assay [7].

Values taken from publication PMC3635912.
